Measurements taken from PubChem BioAssay AID485281 (National Center for Advancing Translational Sciences (NCATS), 2010).
Where “and” joins values, the source holds several entries; their conditions need not be identical. Equal values may be shown once. The whole screen tested about 350,000 compounds, of which about 260 (0.074%) were called active. Inconclusive results, whose numbers are uncertain, are shown with a selection of clear calls. Calls follow the shape of the dose curve; as a rule, active = well fitted inhibition curve with a large enough effect; inconclusive = small, poorly fitted or top-dose-only effect; inactive = no such curve, though single readings can be large or run the other way. A potency beside an inconclusive call is a rough fit, not a confirmed value.

Molecular target: Ferritin light chain (Equus caballus) (UniProt P02791)
UniProt P02791, sequence (P02791 whole entry, looked up): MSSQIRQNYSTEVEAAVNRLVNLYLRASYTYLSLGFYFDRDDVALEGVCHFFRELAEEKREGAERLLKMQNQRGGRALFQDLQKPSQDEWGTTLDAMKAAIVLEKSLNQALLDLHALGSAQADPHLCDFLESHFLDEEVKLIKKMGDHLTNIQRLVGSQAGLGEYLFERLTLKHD
Experiment: qHTS Assay for Identification of Novel General Anesthetics; also: nearly all actives have a fitted effect of over 20% in size
Conditions: apoferritin/1-aminoanthracene competitive binding, fluorescence; activity change, negative = displacement: at 77.5 µM (top of the series)
How it was run: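 Steps: apoferritin (10 uM) was premixed with half-saturated 1-AMA in PBS, compounds were pin-transferred, plates stood 10 min at room temperature, fluorescence was read at 380/535 nm, and curves were fitted with a Hill equation.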
% is scaled to controls: 0 for no effect and ±100 for the full control effect; tags tell the direction and shape of the fitted curve.

Row | Compound | Potency | activity change, negative = displacement
1 | Cc1ccccc1C(=O)c1cccn1CC(=O)NCc1ccc(Cl)cc1 | inconclusive: 11.2 µM [inhibitor, partial curve] and inconclusive: 15.8 µM [inhibitor, partial curve] | 
2 | CCOC(=O)c1cnn(-c2ccccc2)c1-n1cccc1C(=O)C(=O)Nc1ccc(OC)cc1 | inconclusive: 14.1 µM [inhibitor, partial curve] | 
3 | CC(C)(C)c1ccc(OCc2ccc(C(=O)N/N=C/c3ccc(O)c(O)c3)cc2)cc1 | inconclusive: 25.1 µM [inhibitor, partial curve] | 
4 | CCN1CCn2c3c(c4cc(C)ccc42)CCCC31 (configuration not stated) |  | inactive: -18.4%
5 | CCN1CCN(C(=O)C2(NC(=O)Nc3ccccc3Cl)CCCCC2)CC1 |  | inactive: 4.36%
6 | Nc1nnc(SCC(=O)c2ccc3ccccc3c2)s1 | inconclusive: 28.2 µM [inhibitor, partial curve] | 
7 | CCOC(=O)COn1c(=O)c(-c2ccco2)[n+]([O-])c2ccccc21 |  | inactive: -2.67%
8 | COc1ccc(C2CC3CC(c4ccccc4)N2O3)cc1 (configuration not stated) | inconclusive: 7.94 µM [inhibitor, partial curve] | 
9 | Cc1ccc(S(=O)(=O)N(CC(=O)N/N=C/c2cccc3c2OCCO3)c2ccccc2F)cc1 | inconclusive: 2.82 µM [inhibitor, full curve, poor fit] | 
10 | COc1ccc(C(CNC(=O)c2ccc(C)c(S(=O)(=O)Nc3ccccc3OC)c2)N2CCCC2)cc1 (configuration not stated) | inconclusive: 20 µM [inhibitor, partial curve] | 
11 | Cn1c(=O)n(Cc2ccccc2Cl)c2ccccc21 | inconclusive: 14.1 µM [inhibitor, partial curve] | 
12 | CC(C)COc1ccc(C(=O)Nc2ccc(NC(=O)c3ccco3)c(Cl)c2)cc1 |  | inactive: -9%
13 | COc1ccccc1C(=O)N1CCc2ccccc21 | inconclusive: 35.5 µM [inhibitor, partial curve] | 
14 | COc1ccc(N/C(C)=C2/C(=O)C(=O)N(CCO)C2c2ccc(Br)cc2)cc1 (configuration not stated) | inconclusive: 14.1 µM [inhibitor, partial curve] | 
15 | COc1ccccc1NC(=O)Nc1nnc(Cc2ccc(F)cc2)s1 | inconclusive: 3.98 µM [inhibitor, full curve] | 
16 | CCOC(=O)c1sc(Nc2cccc(C)c2C)nc1C | inconclusive: 28.2 µM [inhibitor, partial curve] | 
17 | CCCCCC1CC(CC(=O)Nc2ccc([N+](=O)[O-])cc2)OC1=O (configuration not stated) | inconclusive: 50.1 µM [inhibitor, single point] | 
18 | COc1ccc(C(=O)Nc2ccc(-n3nncc3C(C)(C)C)cc2)cc1 | inconclusive: 22.4 µM [inhibitor, partial curve] | 
19 | Cc1cccc(NC(=O)c2nc[nH]c2C(=O)NCC(=O)OC(C)(C)C)c1 | inconclusive: 50.1 µM [inhibitor, single point] | 
20 | COc1ccc(/C=C(\C#N)C(=O)OCC(=O)Nc2ccc(C(C)(C)C)cc2)cc1 | inconclusive: 14.1 µM [inhibitor, partial curve] | 
21 | CCn1c(O)c(N=NC2=NC(=O)CS2)c2ccccc21 | inconclusive: 28.2 µM [inhibitor, partial curve] | 

Row | Compound | Potency | activity change, negative = displacement
22 | CC(NS(=O)(=O)c1ccc(Cl)c(Cl)c1)C(=O)OCC(=O)Nc1ccc2c(c1)OCO2 (configuration not stated) | inconclusive: 35.5 µM [inhibitor, partial curve] | 
23 | Cc1ccc(C(=O)Nc2ncc(Cc3ccc(F)cc3)s2)o1 | inconclusive: 35.5 µM [inhibitor, partial curve] | 
24 | CC(C)(C)c1ccc(/C=C/C(=O)Nc2ccncc2)cc1 | inconclusive: 28.2 µM [inhibitor, partial curve] | 
25 | CCCn1cc(S(=O)(=O)c2cccc(Cl)c2)c(=O)c2cc(F)c(N3CCOCC3)cc21 | inconclusive: 4.47 µM [inhibitor, full curve] | 
26 | CCC(CC)C(=O)Nc1cc([N+](=O)[O-])ccc1F | inconclusive: 50.1 µM [inhibitor, single point] | 
27 | COc1ccc(/C=N/NC(=O)c2ccc(O)cc2)cc1CN1CCCc2ccccc21 | inconclusive: 7.94 µM [inhibitor, partial curve] | 
28 | CSC(=O)NC12CC3CC(CC(C)(C3)C1)C2 | inconclusive: 50.1 µM [inhibitor, single point] | 
29 | COc1ccc2c(c1)n([O-])c1c([n+]2=O)CCC1 |  | inactive: -8.42%
30 | C/C(=N\NC(=O)c1ccncc1)c1cccc(NC(=O)c2ccc(C(C)(C)C)cc2)c1 | inconclusive: 15.8 µM [inhibitor, partial curve] | 
31 | CCCCc1c(C)c2ccc(OCC(C)=O)cc2oc1=O | inconclusive: 39.8 µM [inhibitor, single point] | 
32 | O=C(NC12CC3CC(CC(C3)C1)C2)c1cc([N+](=O)[O-])ccc1Cl | inconclusive: 10 µM [inhibitor, full curve] | 
33 | COc1ccc2oc(=O)c(C(=O)NCC3CCCO3)cc2c1 (configuration not stated) |  | inactive: 582%
34 | O=C1CC(N2CCC(c3nc4ccccc4o3)CC2)C(=O)N1c1ccc(Cl)c(C(F)(F)F)c1 (configuration not stated) | inconclusive: 14.1 µM [inhibitor, partial curve] | 
35 | Cc1c(C(=O)C(=O)N2CCN(C)CC2)c2ccccc2n1C |  | inactive: -2.81%
36 | CCOC(=O)c1c(C)n(-c2ccccc2)c2ccc(O)cc12 |  | inactive: -9.49%
37 | O=C(COC(=O)CNS(=O)(=O)c1ccccc1)Nc1ccc(Cl)cn1 | inconclusive: 50.1 µM [inhibitor, single point] | 
38 | CN(CCC#N)Cc1cc(=O)oc2ccc3ccccc3c12 |  | inactive: -10.2%
39 | O=C(CCc1ccccc1)Nc1ccnn1C1CCN(C/C=C/c2ccccc2)CC1 |  | inactive: -4.54%
40 | COc1ccc(N2CCN(C(=O)c3cn(CC4CCCCC4)nn3)CC2)cc1 | inconclusive: 39.8 µM [inhibitor, single point] | 
41 | Cc1nc(COC(=O)c2ccc(S(=O)(=O)N3CCCC3)cc2)cs1 | inconclusive: 56.2 µM [inhibitor, single point] | 
42 | CC(C)(C)NC(=O)C(c1cccs1)N(CC1CCCO1)C(=O)Cn1nnc(-c2cccs2)n1 (configuration not stated) | inconclusive: 12.6 µM [inhibitor, partial curve] | 
